From the supplement of paper PMC10126150
Values marked as one replicate rest on one cluster of the flow cell; about a third of the high ones do not repeat.

Test system: ATP
Assay: switch fluorescence ratio, 500 uM ATP over buffer (Cy3 cluster intensity, sum of 5 cycles each) (fold (ratio)); higher = stronger signal-on switching upon ATP binding; sequences stand for … in TCGTCGGCAGCGTCAGATGTGTATAAGAGACAGTTTTTTTTTTTTTTTTTTTTTTTTT…TC
Details: aptamer strand: ATP DNA aptamer (quencher-CACCTGGGGGAGTATTGCGGAGGAAGG + anchor), 100 nM annealed; ATP concentration: 500 uM; one replicate
Method in brief: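 After annealing to 100 nM quencher-labelled ATP aptamer, Cy3-labelled switching-strand clusters on a modified Illumina MiSeq flow-cell were imaged in selection buffer. A second image followed after 15 min with 500 uM ATP at 22 °C, and five such buffer/ATP cycles were done, each separated by NaOH stripping and re-annealing. The fluorescence ratio, averaged per switch-domain sequence, is summed target-cycle over summed buffer-cycle Cy3 intensity per cluster, with clusters outside 100-1000 RFU excluded.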
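Further: ATP exposure 15 min at 22 °C before imaging.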

Sequence	switch fluorescence ratio
CTACCTCTGT	1.05
CACCATGTGG	1.04
CTGAGCATTG	1.22
CTAGTAATGT	0.977
GAGTAAAACC	1.06
GTCATACCAC	1
ATATCAGACA	1.07
AAAAATTTCT	0.969
ACTGGCCGCT	1.05
TTAGCCCGAG	0.982
GAGAAATGTT	0.998
TCGTCGAC	0.984
TGCATTTGGC	0.992
TTTAATCGA	0.958
CATTAAATCG	0.979
GGGTCTCTGA	0.996
TTGCCAGCTA	0.96
CGCCCAGAAT	0.974
TAGGTAGGCC	1.03
AGTGGCGACG	0.98
ATCGAATTCG	0.991
TTCAGGACCT	1.01
TCAGGGTTCC	1.01
TTTGGTAGAC	1.01
TTATCCGA	1.1

Sequence	switch fluorescence ratio
GTATCTTGGT	1
TCCCTTTTGT	1.03
GTTGATCCGT	1.01
GCGACGCTGT	2.33
CATGATGATT	1
TATTCATCCC	0.977
CGTGGAAGTC	0.955
GAAGGACGCC	1.04
TGCTCGAGTC	0.987
GCTGCTTTAC	2.66
ATAGAGGGG	0.966
AAGCTATGGA	1
TACGGACCGG	1.1
GATCATTTGC	0.966
CCAAGTAAAC	2.84
AAGTGGGCGG	1
AACTTGATTG	0.96
CTCAGAGTGA	1.05
AGATGGTTTA	0.982
ACTACACTCA	1.22
GGAGATAAG	1.01
CTATCCAACG	1.05
TTACGAGACA	1.16
GAGGCAACGG	1
TCGATCTGAG	1.01

Sequence	switch fluorescence ratio
ACTCACGTTA	1.4
CGCCTGCGCT	1.02
TCGTGGCAAC	1.07
TATACTTAGG	1.06
TCCGTCCATC	1.4
GCGCAATTTA	1.15
AGTTTGCGAG	0.935
TAGCAAAAGT	1.01
ACGGAACTGA	1.13
GTGTAGCGGG	0.992
AATACGAGTG	0.979
ATTTGATGC	0.985
GTGTTTCGGC	0.96
ATAGCGGTTC	1.1
ACTTAGCAAT	2.68
GCGTCGGCGC	1.07
GCCCTGCCCG	1.03
CATTAGTAGT	0.995
CGCCAAGTTG	1.02
AGATTCCCTT	0.971
ACGGGCTCGG	0.982
TTGGCCCAGC	1.01
CCCCGACGGT	1.29
CACCGACGGC	1.71
GGCTTCGAAA	1.15

Sequence	switch fluorescence ratio
GCCATTCGGG	1.03
AAGTCCGGTG	1.05
TTAGGAGTAA	0.935
AATTCAAGCT	1.02
CAATGCCCGC	0.954
TTTGATTAAC	1.02
GCTAGCATGC	1.06
ATAGCTTAAG	1.02
GAACGTTCGG	1.02
CATAGACATG	0.983
TACAGCCGAT	1.08
TTCGGCTTAT	0.999
GTCTACCAG	1
TTCGCGTCA	1.02
ACACTGGCGG	1.06
ACGGGTCATT	1.01
TTCATAGCTC	1.02
CCGTCCTCTA	1.31
CCACGGGGAG	1.13
GATAGGGTGT	1.05
CGGCGGGGCT	0.997
CAGACTACCT	1.16
AGGCAGGGAG	0.987
TCAACACGAG	1.07
CAACGGACAA	1.29

Sequence	switch fluorescence ratio
GTAGGTGGGT	1.02
ATTCGCAGGT	1.1
ATAGTGCATG	0.975
CTGGAGCGGG	1.35
ATTGGTATG	0.977
AACTCCGGAG	0.976
CAGCGGTTTG	1.02
ATCCGAATCG	1.04
AGGTAGTCAT	1.05
TGATCTACCA	1.02
TTAAATAAAC	1.01
GCCAGGGGGC	1.32
ACACGTGGGG	1.06
GTGAGAAGGG	1.01
TCCTAACGGT	1.03
TTATGCAATC	2.88
ACTAATTGCG	0.974
TTGGCTCGCC	1.02
TTATCAAATG	0.976
AGCGACCAGG	1.06
ACCTTGCGAT	1.8
GGTCAAGGTA	0.994
CGGATTTGTA	0.97
GCACTGGCTA	1.03
TATCGCTATT	0.979

Sequence	switch fluorescence ratio
CACAGCGTCT	0.995
ACAAGGGCCC	1.02
GGGTTTGCGG	1.01
CTGTCTGGGA	0.98
ATTTCTGATC	0.944
AGCCCGTCAA	1.29
AGTGGCAAGA	1.02
TGTTCCTATT	0.962
CTTGTAATCC	1.14
GCACAAATTT	1.01
TTAGAGCTTG	1.01
TGAATTAGGT	0.985
TGGACTCCTA	1.02
AGTTAACAGA	0.997
CATTAGTACT	0.986
CTTACATTTG	1.01
AATGGACTGG	1.05
TTGGGGGCCG	0.971
TGTTGGGCGA	0.995
GTGTAACATA	0.976
GTAAATAGGT	1
ATATTGCACT	1.01
AAAAAATA	0.995
ATGTACTT	1.08
CGTTTCTGAT	1.03

Sequence	switch fluorescence ratio
TTCACTTGAT	0.992
GTCTACACAT	0.976
AGTGGTCGTG	1.02
TTACCTGGGA	1.01
AGGACAACGC	0.974
ACAAACGCCG	1.02
CCCGACCTGG	1.01
TATCTGGTCA	0.987
TCACATTAGT	1.01
GCGGCGCTCT	0.974
TAGAGCACCA	1.03
ACCTATGAGA	1.03
TCCTGGCCA	1
CTGAGCAGGT	1.38
GTGAAGGTCT	1.02
CGTTCAAATC	1.04
CCGATGGCGG	1.55
GACTTTGAAG	1.12
GGCGAAAGAC	1.26
GATAGTACGC	1.03
ACGTTGAACC	1.16
AAATTCTTGG	1
CCAACGGTAC	3.87
GCATCATCTT	1.02
AGTTGACGTT	0.987

Sequence	switch fluorescence ratio
ACGCGGGGCC	1.05
CAGATGGAAG	1
ATCGACGTAC	1.53
ATCATTGCCA	0.962
ACATCACAAG	1.23
GTCATGGCTG	0.944
CACCCAGAAC	1.32
TAAGCGGTCG	1.05
GGCTTCAGCG	0.968
GCGAAATTCG	0.982
AAGATCCCGT	0.969
ATTATGAGG	1.02
GGCCAGCCCG	1.01
GTCAGGGGTT	2.94
GGCATCATAA	1.01
CGACCGTTCG	0.997
GAATATGGC	1
GGTAAAAACT	0.983
CGTTGTCCTT	0.912
GCACAGTTGG	1.02
AATTTAAGCT	1.05
TCGTGAAGGC	1.05
AGCGGGGGGC	1.01
AATCGCGAGT	1.03
CTCTACAGT	1.01
